Target: PRMT5/MEP50 Complex (Homo sapiens (Human), UniProt O14744)
Assay: PRMT5 inhibition based on TR-FRET assay
Format: biochemical
Details: 32 nM PRMT5:MEP50 complex, 50 nM Histone-H4 peptide, 1 μM SAM, 90 minutes at room temperature
From the text: Protein arginine methyltransferase 5 (PRMT5) is a type II arginine methyltransferase that catalyze mono- and symmetric demethylation on arginine residues of histone or non-histone proteins in presence of S-adenosylmethionine (AdoMet or SAM) a cofactor responsible for donating the methyl group. PRMT5 is reported to be overexpressed in several human cancers. To identify compounds that inhibit the PRMT5 and decrease its activity, a TR-FRET based assay has been established. Time-resolved fluorescence resonance energy transfer (TR-FRET) HTS assays are homogeneous proximity assays where the interaction of two dye-labeled binding partners is detected by the energy transfer between a donor and an acceptor dye, and the subsequent light emission by the acceptor dye. PRMT5 catalyzes Histone H4 peptide which is biotin tagged to the Lysine amino acid at carboxyl end, in presence of S-adenosyl-1-methionine (SAM) to methylate the peptide. The antibody specific to mono methylated H4 peptide (H4R3) with Ig conjugate binds to the methylated peptide, indirectly binding to the Europium lanthanide. […]
The compound dilutions were prepared as 7.5% DMSO stock solutions in assay buffer. […] The plates were then read on Victor-3 with Excitation at 340 nm and Emissions collected at 615 and 665 nm in TR-FRET protocol. […]

IC50 [µM]	SMILES
0.017	CCOC(=O)C(C)(C)C1CCN(c2ccc(CN3CCN(C[C@H](O)CN4CCc5ccccc5C4)C3=O)nc2)CC1 [Compound 13, ethyl(R)-2-(1-(6-((3-(3-(3,4-dihydroisoquinolin-2(1H)-yl)-2-hydroxypropyl)-2-oxoimidazolidin-1-yl)methyl)pyridin-3-yl)piperidin-4-yl)-2-methylpropanoate]
0.039	O=C(c1ncc(-c2ccc(CN3CCN(C[C@H](O)CN4CCc5ccccc5C4)C3=O)cn2)cn1)N1CCCC1 [Compound 103, (R)-1-(3-(3,4-dihydroisoquinolin-2(1H)-yl)-2-hydroxypropyl)-3-((6-(2-(pyrrolidine-1-carbonyl)pyrimidin-5-yl)pyridin-3-yl)methyl)imidazolidin-2-one]
